Measured values taken from PubChem BioAssay AID485367 (National Center for Advancing Translational Sciences (NCATS), 2010).
The whole screen tested about 330,000 compounds, of which about 560 (0.17%) were called active. Inconclusive results, whose numbers are uncertain, are shown with a selection of clear calls. Calls follow the shape of the dose curve; as a rule, active = well fitted inhibition curve with a large enough effect; inconclusive = small, poorly fitted or top-dose-only effect, or effect the other way; inactive = flat fitted curve, though single readings scatter. No potency is given beside an inconclusive call; the fits are too rough.

These compounds were tested against ATP-dependent 6-phosphofructokinase (Trypanosoma brucei brucei) (UniProt O15648) (assay: qHTS Assay to Find Inhibitors of T. brucei phosphofructokinase). Settings: T. brucei PFK, ADP-Glo luminescence; activity, negative = inhibition: at 57.5 µM (top of the series).
Chain of UniProt O15648 (O15648 whole entry, looked up): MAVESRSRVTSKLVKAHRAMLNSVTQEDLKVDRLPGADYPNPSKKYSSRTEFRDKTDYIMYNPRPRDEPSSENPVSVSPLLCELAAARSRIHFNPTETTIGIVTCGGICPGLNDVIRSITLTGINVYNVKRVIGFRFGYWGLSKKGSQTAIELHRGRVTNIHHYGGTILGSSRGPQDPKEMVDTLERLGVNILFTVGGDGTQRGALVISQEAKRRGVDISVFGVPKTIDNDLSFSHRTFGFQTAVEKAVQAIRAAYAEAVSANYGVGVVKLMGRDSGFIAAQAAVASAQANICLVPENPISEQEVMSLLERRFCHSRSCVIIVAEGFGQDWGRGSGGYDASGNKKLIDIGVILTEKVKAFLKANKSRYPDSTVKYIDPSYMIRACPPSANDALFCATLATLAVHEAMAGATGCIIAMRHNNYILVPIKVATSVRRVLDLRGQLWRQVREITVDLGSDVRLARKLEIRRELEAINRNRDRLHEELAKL
Method in brief: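 PFK 1.25 nM, F6P 0.5 mM, ATP 0.1 mM, 0.1 M TEA pH 8.0, 5 mM MgCl2, 0.01% Tween20, 0.1% BSA; 45 min RT. ADP-Glo readout. qHTS titration up to 57 uM; curves fitted, compounds curve-classed.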
Also: nearly all actives have a fitted effect of over 60% in size.
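For activity, negative = inhibition in this document: 0% = uninhibited 1x PFK enzyme wells and -100% = no-enzyme wells.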
Potency is read from the fitted curve at half-maximal effect; tags tell the direction and shape of the fitted curve.

Compound	Potency	activity, negative = inhibition
CC(=O)OCCCNc1cc(Sc2nc3ccccc3s2)c2nonc2c1[N+](=O)[O-]	inconclusive [falling, full curve]	
COc1ccc(/C=N/NC(=O)c2ccc(Br)cc2)cc1CN1CCOCC1		inactive: 0.176%
Cc1ccccc1NC(=O)CCCNC(=O)c1ccc(Cl)cc1		inactive: -7.39%
O=C(N/N=C/c1ccc(Br)cc1)c1ccc(Br)o1	inconclusive [falling, single point]	
O=C(COc1ccccc1)Nc1nc2ccccc2[nH]1	inconclusive [falling, single point]	
COc1ccc(C(=O)NCc2ccc(Cl)cc2)cc1S(=O)(=O)N1CCCC1	inconclusive [falling, single point]	
CCN(CC)CCCn1c2c(c(SCC(=O)Nc3ccc(OC(F)(F)F)cc3)nc1=O)CCC2		inactive: 1.41%
Cc1nc2ccc(-c3nc4ccc(N)cc4[nH]3)cc2[nH]1	inconclusive [activator, single point]	
Cc1ccc(CNC(=O)CCS(=O)(=O)c2ccc(Br)cc2)cc1	inconclusive [falling, single point]	
COc1ccc2cc3cc(C(=O)NCc4ccco4)oc3nc2c1	inconclusive [falling, single point]	
O=C(Nc1cccc(C(F)(F)F)c1)c1cccc(NS(=O)(=O)c2ccc(Br)c(C(=O)O)c2)c1	inconclusive [falling, single point]	
O=C1/C(=C\c2ccc(O)c(O)c2)SC(=S)N1Cc1ccccc1	inconclusive [falling, single point]	
COc1ccc(OC)c(-n2c(-c3cc(-c4ccccc4)n[nH]3)n[nH]c2=S)c1	inconclusive [falling, partial curve]	
O=C(Nc1nc(-c2ccccn2)cs1)C1CC(=O)N(c2ccc3c(c2)OCCO3)C1 (stereo not drawn)		inactive: 0.877%
O=C(/C=C/c1ccncc1)c1ccc(NC(=O)c2ccccc2F)cc1	inconclusive [activator, single point]	
COCCn1c(SCC(=O)NNC(=O)Cc2ccccc2)nc2ccccc2c1=O		inactive: 13.7%
CCCCC(=O)Nc1nnc(/C=C/c2ccc(OC)cc2)s1	inconclusive [falling, single point]	
COCc1[nH]c(=S)c(C#N)cc1C(=O)OC		inactive: -2.9%
Cc1ccc(OCc2nnc(SC3CCc4ccccc4C3=O)n2C)cc1 (stereo not drawn)	inconclusive [falling, single point]	
Nc1c(C(=O)NC2CC2)c2nc3ccccc3nc2n1-c1ccc2c(c1)OCO2		inactive: -3.36%
Cc1cc(C)cc(C(=O)NCC(=O)N2CCN(c3cccc(Cl)c3)CC2)c1	inconclusive [falling, single point]	
Cc1cccc(NC(c2ccc(O)cc2)c2ccc3ccc(C)nc3c2O)n1 (stereo not drawn)		inactive: 4.7%
O=C1C2C3C=CC(C4CC34)C2C(=O)N1/N=C/c1ccc(-c2cccc([N+](=O)[O-])c2)o1 (stereo not drawn)		inactive: -6.91%
CCC(=O)NC(c1ccc(C)cc1)c1cc([N+](=O)[O-])c2cccnc2c1O (stereo not drawn)		inactive: -1.59%

Compound	Potency	activity, negative = inhibition
O=C(COC(=O)C1CC(=O)N(Cc2ccco2)C1)c1ccc(OC(=O)c2ccco2)cc1 (stereo not drawn)	inconclusive [falling, partial curve]	
NC(=O)c1cccn1Cc1cccc(Cl)c1	inconclusive [falling, partial curve]	
CCC(C)[C@H](NC(=O)Nc1ccc(C(C)=O)cc1)C(=O)OC (stereo partly drawn)	inconclusive [falling, single point]	
OCCCNc1cc(-c2ccccc2)nc2cc(-c3ccc(F)cc3)nn12		inactive: 0.0114%
Cc1ccc(/C=C/C(=O)N2CCN(S(=O)(=O)c3ccc(C)c(C)c3)CC2)o1	inconclusive [falling, partial curve]	
O=C(O)CC/C(=C\c1ccc(N2CCCC2)c([N+](=O)[O-])c1)c1nc2ccccc2s1	inconclusive [falling, single point]	
COc1cc2c(cc1OC)C1Cc3ccc(OC)c(OC)c3CN1CC2 (stereo not drawn)		inactive: -4.18%
CCOC(=O)N1CCN(C(c2cccnc2)c2ccc3cccnc3c2O)CC1 (stereo not drawn)	inconclusive [falling, single point]	
O=C(N/N=C/c1cccc([N+](=O)[O-])c1)c1ccc(Br)cc1		inactive: -5.59%
CCOC(=O)CSc1nc2c(sc(=S)n2-c2ccccc2)c(=O)n1-c1ccc(OC)cc1OC	inconclusive [falling, full curve, poor fit]	
O=C1OC(c2cccs2)=N/C1=C\c1ccc(-c2ccccc2Cl)o1	inconclusive [activator, single point]	
O=C(CNC(=O)c1cccc(OC(F)F)c1)OCc1cc(=O)n2cc(Br)ccc2n1		inactive: -19.6%
CCCc1cc(-c2ccc(O)c(OCC)c2)c(C#N)c(N)n1		inactive: 3.04%
COc1ccc(/C=C/C(=O)Nc2ccccc2C(=O)O)cc1OC	inconclusive [activator, partial curve]	
O=C(Cn1nc(-c2ccccc2)c2ccccc2c1=O)Nc1ccc(F)cc1		inactive: 1.43%
CCN(c1ccccc1)S(=O)(=O)c1ccc(Cl)c(NC(=O)CN2CCN(C)CC2)c1		inactive: 0.23%
O=C(Nc1nc2ccccc2[nH]1)c1ccc(OC(F)F)cc1		inactive: -0.088%
O=C(Nc1ccc(F)c(Cl)c1)Nn1cnnc1	active: 16.9 µM	
CCCc1cc(C(=O)Nc2ccc(C(=O)c3ccccc3)cc2)n(C)n1		inactive: 4.67%
Cc1c(Br)c([N+](=O)[O-])nn1CC(=O)NCc1cccs1	inconclusive [falling, single point]	
CCOC(=O)NC1(Nc2ccc(C)cc2)Oc2ccccc2O1	inconclusive [falling, partial curve]	
Cc1ccc(/C=C2/NC(=O)N(Cc3ccc(Br)cc3)C2=O)o1	active: 15.1 µM	
Oc1c(C=Nc2cccc3cccnc23)sc2ccccc12	inconclusive [falling, single point]	
O=C(CSc1ccc([N+](=O)[O-])cc1)NCC1CCCCC1	inconclusive [falling, single point]	
